Several values for one entry are separate records, joined by “and”; a condition that tells them apart may be missing. Equal entries are not always repeated.
What was measured:
MDA-MB-468/hNotch3 [1] = molecular target: T1, MDA-MB-468/hNotch3 (Homo sapiens, UniProt Q9UM47); experiment: In vitro cytotoxicity (MTS), MDA-MB-468/hNotch3; assay type: cell-based; conditions: Table 14; two individual repeats; LP = lacked potency
T1 construct: cell lines engineered to over-express full length human Notch3 protein: MDA-MB-468/hNotch3 and U2OS/hNotch3; expressed in transfected cells; host or cells: MDA-MB-468
Method: (§1) The effects of anti-Notch3 ADCs were assessed on 1) cell lines endogenously expressing Notch3 protein: HCC2429 (lung cancer), OVCAR3 (ovarian cancer) and MDA-MB-468 (breast cancer), 2) cell lines engineered to over-express full length human Notch3 protein: MDA-MB-468/hNotch3 and U2OS/hNotch3, and 3) a negative control cell line (SW900) using an MTS cellular viability indicator (Promega, Madison, Wis.). These cell lines were cultured with increasing concentrations of anti-Notch3 ADCs comprising rat-human chimeric anti-Notch3 antibodies, ch28 and ch75, and humanized anti-Notch3 antibodies, hu28 and hu75, conjugated to various linker-payload combinations of the present invention. As a specificity control for the anti-Notch3-ADCs, non-targeted control-ADCs (huNeg8.8-ADCs or ch2H6-ADCs) were also tested on the same cell lines. After four days, viability of each culture was assessed. IC50 values were calculated by logistic non-linear regression, model #203 with XL fit v4.2 (IDBS, Guildford, Surry, UK) and presented as ng Ab/mL. The drug antibody ratio (DAR) is also provided.

HCC2429 (lung cancer) = experiment: In vitro cytotoxicity (MTS), HCC2429; assay type: cell-based, human; conditions: Table 14; two individual repeats; LP = lacked potency
Method: as §1
(§2) This process generated the anti-Notch3 cysteine mutant ADCs: hu28-(L443C)-vc0101 and hu28-(L443C/κK183C)-vc0101. The activity of the anti-Notch3 cysteine mutant ADCs were assessed on cell lines endogenously expressing Notch3 protein: HCC2429 (lung cancer) and OVCAR3 (ovarian cancer) using an MTS cellular viability indicator as described in previous Examples.

HCC2429 lung xenografts = experiment: HCC2429 lung xenograft model (ADCs); assay type: in vivo, mouse
Method: Similar in vivo experiments were performed with the HCC2429 lung cancer cell line as described above. To generate xenografts, nude (Nu/Nu) female mice were implanted subcutaneously with 3.5×10^6 HCC2429 cells in 50% Matrigel (BD Biosciences).
The HCC2429 lung model was also dosed intravenously Q4d×4 with PBS vehicle, rat-human chimeric anti-Notch3 ADCs and control huNeg-8.8 ADCs, at a dose of 5 mg/kg as provided in FIG. 16A.

OVCAR3 = molecular target: T2, OVCAR3 (Homo sapiens, UniProt Q9UM47); experiment: Cytotoxicity (MTS) after control or Notch3 siRNA, OVCAR3; assay type: cell-based; conditions: 96 hours
T2 construct: Notch3 endogenously expressing cells MDA-MB-468, HCC2429 and OVCAR3; endogenous in cells; host or cells: OVCAR3
Method: (§3) Notch3 knockdown with siRNAs was used to confirm that the in vitro cytotoxicity of anti-Notch3 ADCs was dependent on the expression of the Notch3 protein. siRNA transfections were generated using ON-TARGET plus SMART pool human Notch3 (L-011093-00), ON-TARGET plus Control Non-Targeting pool (D-001810-10) (Thermo Scientific Dharmacon) and Lipofectamine RNAiMAX Reagent (Invitrogen). Two to 2.5×10^6 cells of HCC2429, OVCAR3 and MDA-MB-468/hNotch3 cells were plated in 10 cm dishes in growth medium without antibiotics the day before transfection. The next day fresh medium without antibiotics was added. The siRNAs and the Lipofectamine RNAiMAX were diluted in OPTI-MEM media and used as per the manufacturer's specifications. Each of the cell lines was transfected with control and Notch3 siRNAs. The cells were incubated with the transfection mixture for 24 hours in a humidified, 37° C., 5% CO2 incubator. After 24 hours, cells were trypsinized and plated for assessment using MTS cellular viability indicator (Promega, Madison, Wis.).
(§4) Depending on the cell line, cells were then seeded at a density of 2,500 to 5,000 cells per well 24 hours before treatment. Cells were treated with 3-fold serially diluted humanized anti-Notch3 ADCs in triplicates at 10 concentrations (range 0-30 μg Ab/ml). […] For experiments with 2 individual repeats, average IC50 values were calculated along with standard error of the mean (S.E.M.). Western blot analysis on extracts prepared from control and Notch3 siRNA-treated cells was performed to confirm that Notch3 knockdown occurred for up to 144 hours (data not shown). Cell lines that expressed Notch3 (herein termed control siRNA) or had reduced Notch3 expression after siRNA knockdown (herein termed Notch3 siRNA) were cultured with increasing concentrations of humanized anti Notch3 ADCs. As a specificity control for the anti-Notch3 ADCs, non-targeted control-ADCs (huNeg8.8-ADCs) were also tested on the same cell lines. After four days, viability of each culture was assessed. IC50 values were calculated by logistic non-linear regression, model #203 with XL fit v4.2 (IDBS, Guildford, Surry, UK) and presented as ng Ab/mL. The drug antibody ratio (DAR) is also provided.

MDA-MB-468/hNotch3 [2] = molecular target: T1, MDA-MB-468/hNotch3; experiment: Cytotoxicity (MTS) after control or Notch3 siRNA, MDA-MB-468/hNotch3; assay type: cell-based; conditions: Control siRNA; 96 hours; LP = lacked potency
Method: as §3
as §4, with “As a specificity control for the anti-Notch3 ADCs, non-targeted control-ADCs (huNeg8.8-ADCs) were also tested on the same cell lines.” left out, “The drug antibody ratio (DAR) is also provided.” left out

OVCAR3 (ovarian cancer) = experiment: In vitro cytotoxicity (MTS), OVCAR3; assay type: cell-based, human; conditions: Table 14; LP = lacked potency
Method: as §1, §2

T1 sequence (Q9UM47 40-2321): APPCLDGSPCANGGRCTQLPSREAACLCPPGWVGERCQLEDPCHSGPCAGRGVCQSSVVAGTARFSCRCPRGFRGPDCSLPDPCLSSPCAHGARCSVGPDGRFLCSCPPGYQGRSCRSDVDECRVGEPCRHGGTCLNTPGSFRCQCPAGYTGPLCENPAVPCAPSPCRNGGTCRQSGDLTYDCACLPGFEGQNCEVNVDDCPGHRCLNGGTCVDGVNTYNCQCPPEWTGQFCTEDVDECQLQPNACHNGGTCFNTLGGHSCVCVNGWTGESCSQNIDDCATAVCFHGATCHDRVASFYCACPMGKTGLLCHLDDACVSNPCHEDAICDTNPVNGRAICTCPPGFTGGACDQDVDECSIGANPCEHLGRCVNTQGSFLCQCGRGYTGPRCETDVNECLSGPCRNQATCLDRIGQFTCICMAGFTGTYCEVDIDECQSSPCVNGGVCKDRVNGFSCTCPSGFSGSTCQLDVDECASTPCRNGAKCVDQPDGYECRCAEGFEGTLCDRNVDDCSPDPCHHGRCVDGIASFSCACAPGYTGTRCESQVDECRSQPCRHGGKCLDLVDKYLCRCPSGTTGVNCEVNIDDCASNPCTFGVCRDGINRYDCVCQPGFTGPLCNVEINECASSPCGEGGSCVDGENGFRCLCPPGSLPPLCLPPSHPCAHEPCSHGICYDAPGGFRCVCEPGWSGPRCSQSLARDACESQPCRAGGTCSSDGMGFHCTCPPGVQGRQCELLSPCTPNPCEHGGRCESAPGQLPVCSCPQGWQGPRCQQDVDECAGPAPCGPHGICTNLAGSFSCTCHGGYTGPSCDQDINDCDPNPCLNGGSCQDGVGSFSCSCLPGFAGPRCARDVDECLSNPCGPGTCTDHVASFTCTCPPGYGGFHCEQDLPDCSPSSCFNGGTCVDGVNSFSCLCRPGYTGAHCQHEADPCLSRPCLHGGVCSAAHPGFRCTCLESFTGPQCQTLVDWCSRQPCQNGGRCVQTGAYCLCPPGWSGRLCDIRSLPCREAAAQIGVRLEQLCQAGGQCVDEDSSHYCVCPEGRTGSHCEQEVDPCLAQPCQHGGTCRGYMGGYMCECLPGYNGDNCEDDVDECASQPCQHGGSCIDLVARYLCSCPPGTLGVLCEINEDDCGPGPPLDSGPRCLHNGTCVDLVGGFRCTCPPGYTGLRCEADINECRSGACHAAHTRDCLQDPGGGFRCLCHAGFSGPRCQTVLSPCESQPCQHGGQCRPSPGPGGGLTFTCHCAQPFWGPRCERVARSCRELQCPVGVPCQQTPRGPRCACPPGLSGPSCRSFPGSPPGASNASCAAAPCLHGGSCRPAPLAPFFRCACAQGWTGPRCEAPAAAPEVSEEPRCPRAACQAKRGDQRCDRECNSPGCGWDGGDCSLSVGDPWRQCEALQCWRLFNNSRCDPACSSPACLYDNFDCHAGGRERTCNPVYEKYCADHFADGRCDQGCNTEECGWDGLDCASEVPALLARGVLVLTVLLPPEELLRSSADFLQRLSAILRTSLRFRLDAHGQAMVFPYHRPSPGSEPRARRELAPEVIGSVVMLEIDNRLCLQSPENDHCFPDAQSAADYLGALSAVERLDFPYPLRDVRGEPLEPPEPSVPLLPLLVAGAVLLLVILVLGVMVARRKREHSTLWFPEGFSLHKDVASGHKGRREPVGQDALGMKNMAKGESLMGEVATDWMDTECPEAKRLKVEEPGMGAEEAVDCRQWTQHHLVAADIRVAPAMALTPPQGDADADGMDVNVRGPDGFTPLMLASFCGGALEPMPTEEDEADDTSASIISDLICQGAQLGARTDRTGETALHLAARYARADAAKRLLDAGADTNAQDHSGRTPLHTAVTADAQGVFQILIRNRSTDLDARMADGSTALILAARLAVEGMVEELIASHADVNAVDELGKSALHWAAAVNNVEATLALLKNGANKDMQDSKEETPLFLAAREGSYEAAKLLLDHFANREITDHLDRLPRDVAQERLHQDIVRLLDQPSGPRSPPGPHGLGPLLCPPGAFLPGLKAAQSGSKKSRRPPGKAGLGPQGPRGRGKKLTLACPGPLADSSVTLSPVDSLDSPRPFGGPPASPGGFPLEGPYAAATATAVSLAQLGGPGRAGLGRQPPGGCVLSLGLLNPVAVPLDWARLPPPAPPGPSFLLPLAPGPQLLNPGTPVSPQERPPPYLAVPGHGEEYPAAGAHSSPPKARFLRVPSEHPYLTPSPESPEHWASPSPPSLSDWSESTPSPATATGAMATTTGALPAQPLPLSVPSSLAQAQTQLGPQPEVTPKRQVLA
T2 sequence (Q9UM47 40-2321): as above

B1: hu28-vc6780 (conjugate)
heavy: EVQLVESGGGLVQPGGSLRLSCAASGFTFRDYGMTWVRQAPGKGLEWVAYISSGSNYIYYAEAVKGRFTISRDNAKNSLYLQMNSLRAEDTAVYYCARRGPFVLDAWGQGTLVTVSS[letters of human IgG1 constant region omitted]
light: DIQMTQSPSSLSASVGDRVTITCKASQSINRYLHWYQQKPGKAPKLLIYNANGLQTGVPSRFSGSGSGTDFTLTISSLQPEDFATYYCLQHNTWPDTFGGGTKVEIKRTVAAPSVFIFPPSDEQLKSGTASVVCLLNNFYPREAKVQWKVDNALQSGNSQESVTEQDSKDSTYSLSSTLTLSKADYEKHKVYACEVTHQGLSSPVTKSFNRGEC
MDA-MB-468/hNotch3 [1]
  IC50 (ng Ab/mL), MDA-MB-468/hNotch3: 1.3 ng Ab/mL and 3 ng Ab/mL
HCC2429 (lung cancer)
  IC50 (ng Ab/mL), HCC2429: 148 ng Ab/mL and 2050 ng Ab/mL
HCC2429 lung xenografts; 1 mg/kg i.v. Q4d×4, DAY 1
  tumor volume (mm^3 ± SEM): 400 mm^3
HCC2429 lung xenografts; 1 mg/kg i.v. Q4d×4, DAY 3
  tumor volume (mm^3 ± SEM): 579 mm^3
HCC2429 lung xenografts; 1 mg/kg i.v. Q4d×4, DAY 5
  tumor volume (mm^3 ± SEM): 826 mm^3
HCC2429 lung xenografts; 1 mg/kg i.v. Q4d×4, DAY 7
  tumor volume (mm^3 ± SEM): 1023 mm^3
HCC2429 lung xenografts; 1 mg/kg i.v. Q4d×4, DAY 10
  tumor volume (mm^3 ± SEM): 1439 mm^3
HCC2429 lung xenografts; 1 mg/kg i.v. Q4d×4, DAY 12
  tumor volume (mm^3 ± SEM): 1442 mm^3
HCC2429 lung xenografts; 1 mg/kg i.v. Q4d×4, DAY −1
  tumor volume (mm^3 ± SEM): 245 mm^3
HCC2429 lung xenografts; 3 mg/kg i.v. Q4d×4, DAY 1
  tumor volume (mm^3 ± SEM): 379 mm^3
HCC2429 lung xenografts; 3 mg/kg i.v. Q4d×4, DAY 3
  tumor volume (mm^3 ± SEM): 493 mm^3
HCC2429 lung xenografts; 3 mg/kg i.v. Q4d×4, DAY 5
  tumor volume (mm^3 ± SEM): 609 mm^3
HCC2429 lung xenografts; 3 mg/kg i.v. Q4d×4, DAY 7
  tumor volume (mm^3 ± SEM): 638 mm^3
HCC2429 lung xenografts; 3 mg/kg i.v. Q4d×4, DAY 10
  tumor volume (mm^3 ± SEM): 784 mm^3
HCC2429 lung xenografts; 3 mg/kg i.v. Q4d×4, DAY 12
  tumor volume (mm^3 ± SEM): 883 mm^3
HCC2429 lung xenografts; 3 mg/kg i.v. Q4d×4, DAY 14
  tumor volume (mm^3 ± SEM): 895 mm^3
HCC2429 lung xenografts; 3 mg/kg i.v. Q4d×4, DAY 17
  tumor volume (mm^3 ± SEM): 1105 mm^3
HCC2429 lung xenografts; 3 mg/kg i.v. Q4d×4, DAY 20
  tumor volume (mm^3 ± SEM): 1219 mm^3
HCC2429 lung xenografts; 3 mg/kg i.v. Q4d×4, DAY 24
  tumor volume (mm^3 ± SEM): 1618 mm^3
HCC2429 lung xenografts; 3 mg/kg i.v. Q4d×4, DAY −1
  tumor volume (mm^3 ± SEM): 245 mm^3
HCC2429 lung xenografts; 10 mg/kg i.v. Q4d×4, DAY 1
  tumor volume (mm^3 ± SEM): 369 mm^3
HCC2429 lung xenografts; 10 mg/kg i.v. Q4d×4, DAY 3
  tumor volume (mm^3 ± SEM): 318 mm^3
HCC2429 lung xenografts; 10 mg/kg i.v. Q4d×4, DAY 5
  tumor volume (mm^3 ± SEM): 228 mm^3
HCC2429 lung xenografts; 10 mg/kg i.v. Q4d×4, DAY 7
  tumor volume (mm^3 ± SEM): 172 mm^3
HCC2429 lung xenografts; 10 mg/kg i.v. Q4d×4, DAY 10
  tumor volume (mm^3 ± SEM): 143 mm^3
HCC2429 lung xenografts; 10 mg/kg i.v. Q4d×4, DAY 12
  tumor volume (mm^3 ± SEM): 134 mm^3
HCC2429 lung xenografts; 10 mg/kg i.v. Q4d×4, DAY 14
  tumor volume (mm^3 ± SEM): 115 mm^3
HCC2429 lung xenografts; 10 mg/kg i.v. Q4d×4, DAY 17
  tumor volume (mm^3 ± SEM): 127 mm^3
HCC2429 lung xenografts; 10 mg/kg i.v. Q4d×4, DAY 20
  tumor volume (mm^3 ± SEM): 149 mm^3
HCC2429 lung xenografts; 10 mg/kg i.v. Q4d×4, DAY 24
  tumor volume (mm^3 ± SEM): 206 mm^3
HCC2429 lung xenografts; 10 mg/kg i.v. Q4d×4, DAY 27
  tumor volume (mm^3 ± SEM): 290 mm^3
HCC2429 lung xenografts; 10 mg/kg i.v. Q4d×4, DAY 31
  tumor volume (mm^3 ± SEM): 378 mm^3
HCC2429 lung xenografts; 10 mg/kg i.v. Q4d×4, DAY 34
  tumor volume (mm^3 ± SEM): 551 mm^3
HCC2429 lung xenografts; 10 mg/kg i.v. Q4d×4, DAY 38
  tumor volume (mm^3 ± SEM): 718 mm^3
HCC2429 lung xenografts; 10 mg/kg i.v. Q4d×4, DAY 42
  tumor volume (mm^3 ± SEM): 1011 mm^3
HCC2429 lung xenografts; 10 mg/kg i.v. Q4d×4, DAY −1
  tumor volume (mm^3 ± SEM): 244 mm^3
OVCAR3; Control siRNA
  IC50 (ng Ab/mL) ± S.E.M., OVCAR3 Control siRNA: 189 ± 6.0 ng Ab/mL
OVCAR3; Notch3 siRNA knockdown
  IC50 (ng Ab/mL) ± S.E.M., OVCAR3 Notch3 siRNA: 6100 ± 200 ng Ab/mL
MDA-MB-468/hNotch3 [2]
  IC50 (ng Ab/mL) ± S.E.M., MDA-MB 468/hNotch3 Control siRNA: 2.0 ng Ab/mL
OVCAR3 (ovarian cancer)
  IC50 (ng Ab/mL), OVCAR3: 17 ng Ab/mL
